Measured values taken from the supplement of paper PMC9151546.
Many values rest on one well or one pass, so single values are uncertain.

What was measured:
CHO-K1 [1] = assay: relative survival (nuclei to bead ratio vs DMSO control) (% of vehicle control); higher = more surviving cells
Procedure: (§1)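 Flow-cytometric in vitro micronucleus assay (Litron MicroFlow) in CHO-K1 cells in 96-well plates, 19 concentrations (4.5-200 µM, n=1 per concentration). Without S9, cells were exposed for 24 h and sampled at 48 h. With Aroclor 1254-induced rat liver S9, cells were exposed for 3-4 h and sampled at 27-28 h. Read-outs are %MN and %hypodiploid nuclei relative to nucleated events, and relative survival as the nuclei-to-bead ratio versus the 1% DMSO vehicle control (x100).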

CHO-K1 [2] = assay: micronucleus frequency (% of nucleated events); higher = more micronuclei (genotoxic)
CHO-K1 [3] = assay: hypodiploid nuclei frequency (% of nucleated events); higher = more hypodiploid events (aneugenic)
Procedure: as §1
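Wherever hypodiploid nuclei frequency (% of nucleated events) is given: hypodiploid nuclei gated on a flow cytometer with 488 nm excitation after SYTOX Green staining, cultures at 37 °C, positive controls vinblastine without S9 and cyclophosphamide with S9.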
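Wherever micronucleus frequency (% of nucleated events) is given: cells lysed with nuclei stained by SYTOX Green, then micronucleus-gated events counted against nucleated events by flow cytometry with 488 nm excitation.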
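Wherever relative survival (nuclei to bead ratio vs DMSO control) is given: Lysed-cell nuclei stained with SYTOX Green and counted against counting beads by flow cytometry at 488 nm excitation, with vinblastine (no S9) and cyclophosphamide (plus S9) as positive controls.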

ClCCOCCCl [Bis(2-chloroethyl) ether]
Settings	hypodiploid nuclei frequency, CHO-K1 [3] [%]	micronucleus frequency, CHO-K1 [2] [%]	relative survival, CHO-K1 [1]
concentration: 4.55 (µM), S9 metabolic activation: with S9, exposure time: 3-4 hours	0.22	1.52	92
concentration: 4.55 (µM), S9 metabolic activation: without S9, exposure time: 24 hours	0.96	1.68	103
concentration: 5.69 (µM), S9 metabolic activation: with S9, exposure time: 3-4 hours	0.26	1.2	111
concentration: 5.69 (µM), S9 metabolic activation: without S9, exposure time: 24 hours	0.82	2.24	87.8
concentration: 7.11 (µM), S9 metabolic activation: with S9, exposure time: 3-4 hours	0.22	1.62	113
concentration: 7.11 (µM), S9 metabolic activation: without S9, exposure time: 24 hours	0.74	1.38	94.5
concentration: 8.88 (µM), S9 metabolic activation: with S9, exposure time: 3-4 hours	0.28	1.06	88.5
concentration: 8.88 (µM), S9 metabolic activation: without S9, exposure time: 24 hours	0.96	3.48	101
concentration: 11.1 (µM), S9 metabolic activation: with S9, exposure time: 3-4 hours	0.28	1.9	82.4
concentration: 11.1 (µM), S9 metabolic activation: without S9, exposure time: 24 hours	0.76	2.66	110
concentration: 13.9 (µM), S9 metabolic activation: with S9, exposure time: 3-4 hours	0.28	1.42	98.3
concentration: 13.9 (µM), S9 metabolic activation: without S9, exposure time: 24 hours	0.76	3.34	102
concentration: 17.4 (µM), S9 metabolic activation: with S9, exposure time: 3-4 hours	0.34	1.14	115
concentration: 17.4 (µM), S9 metabolic activation: without S9, exposure time: 24 hours	0.72	2.24	121
concentration: 21.7 (µM), S9 metabolic activation: with S9, exposure time: 3-4 hours	0.22	0.98	75.3
concentration: 21.7 (µM), S9 metabolic activation: without S9, exposure time: 24 hours	0.76	1.86	121
concentration: 27.1 (µM), S9 metabolic activation: with S9, exposure time: 3-4 hours	0.26	1.14	131
concentration: 27.1 (µM), S9 metabolic activation: without S9, exposure time: 24 hours	0.96	1.84	70.5
concentration: 33.9 (µM), S9 metabolic activation: with S9, exposure time: 3-4 hours	0.22	1.16	111
concentration: 33.9 (µM), S9 metabolic activation: without S9, exposure time: 24 hours	0.68	2.62	79.5
concentration: 42.4 (µM), S9 metabolic activation: with S9, exposure time: 3-4 hours	0.22	0.88	81.9
concentration: 42.4 (µM), S9 metabolic activation: without S9, exposure time: 24 hours	0.68	1.6	99.4
concentration: 53 (µM), S9 metabolic activation: with S9, exposure time: 3-4 hours	0.26	1.04	85
concentration: 53 (µM), S9 metabolic activation: without S9, exposure time: 24 hours	0.6	1.84	72.3
concentration: 66.2 (µM), S9 metabolic activation: with S9, exposure time: 3-4 hours	0.14	0.96	81
concentration: 66.2 (µM), S9 metabolic activation: without S9, exposure time: 24 hours	1.04	1.86	70
concentration: 82.7 (µM), S9 metabolic activation: with S9, exposure time: 3-4 hours	0.36	1.32	66.2
concentration: 82.7 (µM), S9 metabolic activation: without S9, exposure time: 24 hours	1.06	4.72	73.4
concentration: 103 (µM), S9 metabolic activation: with S9, exposure time: 3-4 hours	0.12	0.76	82.4
concentration: 103 (µM), S9 metabolic activation: without S9, exposure time: 24 hours	1	2.62	74.2
concentration: 129 (µM), S9 metabolic activation: with S9, exposure time: 3-4 hours	0.32	1.54	66.9
concentration: 129 (µM), S9 metabolic activation: without S9, exposure time: 24 hours	1.28	3.72	80.9
concentration: 162 (µM), S9 metabolic activation: with S9, exposure time: 3-4 hours	0.36	1.96	88.7
concentration: 162 (µM), S9 metabolic activation: without S9, exposure time: 24 hours	1.12	3.16	90
concentration: 202 (µM), S9 metabolic activation: with S9, exposure time: 3-4 hours	0.36	1.46	73.6
concentration: 202 (µM), S9 metabolic activation: without S9, exposure time: 24 hours	0.88	2.36	76.2
